Assay results published in US20230235004A1 (published 2023).

Experiments:
[1] = biological target: T1, human MAdCAM protein (human, UniProt Q13477 19-317, limits assumed); assay: Octet
T1 construct: also called soluble monomeric human MAdCAM; recombinant human MAdCAM
T1 sequence (looked up): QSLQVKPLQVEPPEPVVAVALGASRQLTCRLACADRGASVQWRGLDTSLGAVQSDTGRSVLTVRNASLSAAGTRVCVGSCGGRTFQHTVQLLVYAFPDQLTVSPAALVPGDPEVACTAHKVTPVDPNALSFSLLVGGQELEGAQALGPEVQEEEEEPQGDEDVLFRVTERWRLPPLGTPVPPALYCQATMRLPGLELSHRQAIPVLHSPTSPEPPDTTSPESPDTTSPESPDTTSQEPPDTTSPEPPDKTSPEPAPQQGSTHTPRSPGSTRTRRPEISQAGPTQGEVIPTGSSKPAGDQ

[2] = biological target: T2, human MAdCAM expressed on cells (human, UniProt Q13477 19-382); assay: cell binding
T2 construct: whole, on cells
T2 sequence (looked up): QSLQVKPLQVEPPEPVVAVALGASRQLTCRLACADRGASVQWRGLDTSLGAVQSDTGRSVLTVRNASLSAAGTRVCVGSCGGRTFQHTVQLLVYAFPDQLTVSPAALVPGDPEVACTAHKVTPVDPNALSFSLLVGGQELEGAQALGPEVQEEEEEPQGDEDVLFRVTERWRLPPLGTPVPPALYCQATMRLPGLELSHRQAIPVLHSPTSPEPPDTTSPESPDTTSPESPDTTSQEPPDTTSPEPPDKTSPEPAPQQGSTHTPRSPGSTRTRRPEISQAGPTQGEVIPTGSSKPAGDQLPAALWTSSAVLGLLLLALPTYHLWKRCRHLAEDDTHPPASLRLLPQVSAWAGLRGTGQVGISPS

[3] = biological target: T3, mouse MAdCAM expressed on cells (mouse, UniProt Q61826 22-405); assay: cell binding
T3 construct: whole, on cells
T3 sequence (looked up): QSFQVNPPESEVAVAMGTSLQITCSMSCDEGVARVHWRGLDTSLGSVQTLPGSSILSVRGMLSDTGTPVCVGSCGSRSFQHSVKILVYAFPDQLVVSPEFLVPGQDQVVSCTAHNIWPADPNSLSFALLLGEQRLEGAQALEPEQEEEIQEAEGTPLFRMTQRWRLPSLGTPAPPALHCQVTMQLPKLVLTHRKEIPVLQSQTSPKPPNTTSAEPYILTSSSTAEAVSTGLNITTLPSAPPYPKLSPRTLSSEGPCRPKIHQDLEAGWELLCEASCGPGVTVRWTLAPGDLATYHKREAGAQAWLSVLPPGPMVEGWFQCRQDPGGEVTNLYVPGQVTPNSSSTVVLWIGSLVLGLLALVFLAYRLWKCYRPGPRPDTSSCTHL

binding result [1]: binds
binding result [2]: binds
binding result [3]: binds
B1: MAdCAM antibody Table 1 clone 62 (scFv)
scFv: QVQLVQSGAEVKKPGSSVKVSCKASGGTFSSYAISWVRQAPGQGLEWMGWMEPHTGNTRYAQKFQGRVTITADESTSTAYMELSSLRSEDTAVYYCAKGGFSWFDPWGQGTLVTVSSGGGGSGGGGSGGGGSGGGG[about 100 residues not printed]FGQGTRLEIK
